Among the test systems are MZ2-MEL; MeWo; RPMI7951; RVH-421; SkMel28; SkMel30; SkMel5; UACC257; UACC62; WM115; WM1716; WM1745; WM3526; WM3619; WM451Lu.
What all share (assay): cell count relative to DMSO control; melanoma cells; higher = more viable cells
Holding throughout (conditions): library dose: low library concentration; 72 h

The other results are listed elsewhere or left out. Repeats are few or missing, and single values can be far off.
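Also: cell number obtained by counting DAPI-stained nuclei in high-throughput microscope images with image analysis software, screen run in 1,536-well plates.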

Regarding `O=C(Nc1cccc(Cl)c1)Nc1ncc(CCNc2ncnc3ccsc23)s1` + COC(=O)c1sccc1S(=O)(=O)Nc1ccc(Nc2ccccc2)cc1OC [GSK0660] (first compound 0.0008 µM, partner dose 1 µM), the cell count in the experiment on MZ2-MEL turned out to be 92.7%; in the experiment with MeWo, 93.2%; with RPMI7951 it was 104%; in the experiment on RVH-421, 88.8%; in the experiment on SkMel28 it was 99%; in the experiment on SkMel30 it was 107%. For the same compound, the cell count in the experiment with SkMel5 turned out to be 98.4%; in the experiment with UACC257 it was 106%; in the experiment on UACC62, 127%; with WM115, 82.4%; in the experiment with WM1716 it was 116%; in the experiment with WM1745 it was 95.1%. In addition, the values for the cell count with WM3526, in the experiment with WM3619 and in the experiment with WM451Lu were 95.9%, 98.9% and 96%, respectively.

For the compound `O=C(Nc1cccc(Cl)c1)Nc1ncc(CCNc2ncnc3ccsc23)s1` + O=S(=O)(c1ccccc1)N(CC(F)(F)F)c1ccc(C(O)(C(F)(F)F)C(F)(F)F)cc1 [T0901317] (first compound 0.0008 µM, partner dose 1.4 µM), the cell count with MZ2-MEL was 98.4%; in the experiment with MeWo, 92.8%; with RPMI7951, 86%; in the experiment with RVH-421, 97.8%; in the experiment with SkMel28 it was 76.4%; with SkMel30 it was 106%. Besides, the cell count in the experiment with SkMel5 was determined as 84.8%; in the experiment on UACC257, 87.6%; in the experiment on UACC62, 85.8%; with WM115 it was 86.5%; with WM1716, 73.6%; in the experiment with WM1745, 87.2%. The cell count is 88.5% in the experiment with WM3526, 96.9% with WM3619 and 85.6% in the experiment on WM451Lu.

Consider `O=C(Nc1cccc(Cl)c1)Nc1ncc(CCNc2ncnc3ccsc23)s1` + COc1ccc(COc2ccc(Cc3cnc(N)nc3N)cc2OC)cc1 [GW2580] (first compound 0.0008 µM, partner dose 1 µM), for which the cell count in the experiment with MZ2-MEL stood at 105%; with MeWo it was 110%; in the experiment with RPMI7951, 88.8%; with RVH-421, 93.1%; with SkMel28, 108%; with SkMel30, 86.8%. Moreover, the cell count in the experiment with SkMel5 was determined as 93.9%; in the experiment on UACC257, 99.2%; in the experiment on UACC62 it was 89.7%; in the experiment with WM115, 78.1%; with WM1716 it was 95.6%; in the experiment with WM1745, 88%. In addition, the cell count in the experiment with WM3526 is 92.1%; in the experiment on WM3619, 102%; with WM451Lu, 101%.

Regarding `Cn1cncc1[C@@](N)(c1ccc(Cl)cc1)c1ccc2c(c1)c(-c1cccc(Cl)c1)cc(=O)n2C` [tipifarnib] + Cn1cc(/C=C2\C(=O)Nc3cccnc32)c2ccccc21 [GW441756] (first compound 0.01 µM, partner dose 0.4 µM), the cell count in the experiment with MZ2-MEL turned out to be 98.7%; in the experiment on MeWo, 96.4%; in the experiment on RPMI7951, 79.6%; in the experiment on RVH-421, 71.6%; in the experiment on SkMel28, 75.1%; in the experiment on SkMel30, 118%. The cell count in the experiment on SkMel5 was determined as 86.9%; in the experiment on UACC257, 54.6%; with UACC62, 77.7%; in the experiment on WM115, 100%; with WM1716, 87.1%; with WM1745 it was 88.9%. Besides, the cell count in the experiment with WM3526 was 96.6%; with WM3619 it was 93.5%; in the experiment on WM451Lu, 83.4%.

As for `COc1cc(Nc2ncc(F)c(Nc3ccc4c(n3)NC(=O)C(C)(C)O4)n2)cc(OC)c1OC` [Tamatinib] + CCc1ccc(CCOc2ccc(CC3SC(=O)NC3=O)cc2)nc1 [pioglitazone] (first compound 0.4 µM, partner dose 2 µM), the cell count with MZ2-MEL came to 89.9%; in the experiment on MeWo, 101%; with RPMI7951 it was 90.5%; in the experiment with RVH-421, 114%; with SkMel28, 93.4%; in the experiment with SkMel30, 108%. Also, the cell count is 96.7% with SkMel5; 90.2% in the experiment with UACC257; 85% in the experiment with UACC62; 97.6% in the experiment with WM115; 89.7% in the experiment with WM1716; 83.3% in the experiment with WM1745. In addition, the figures for the cell count with WM3526, in the experiment with WM3619 and in the experiment on WM451Lu were 99.7%, 100% and 104%, respectively.

Consider `COc1cc(Nc2ncc(F)c(Nc3ccc4c(n3)NC(=O)C(C)(C)O4)n2)cc(OC)c1OC` [Tamatinib] + Cc1cc([N+](=O)[O-])ccc1NS(=O)(=O)c1cc(Cl)ccc1Cl [FH535] (first compound 0.4 µM, partner dose 1 µM), for which the cell count in the experiment on MZ2-MEL is 84.4%; in the experiment on MeWo, 84.1%; in the experiment on RPMI7951, 88.1%; with RVH-421, 83.7%; in the experiment on SkMel28, 78.2%; in the experiment on SkMel30, 71.9%. Besides, the cell count was 83.9% in the experiment with SkMel5; 64.1% in the experiment with UACC257; 75.9% with UACC62; 77.4% in the experiment on WM115; 90.3% in the experiment with WM1716; 68.8% with WM1745. Further, the cell count in the experiment on WM3526 was found to be 89.4%; in the experiment with WM3619, 108%; in the experiment with WM451Lu it was 86.8%.

For `C[C@@H]1CCN(C(=O)CC#N)C[C@@H]1N(C)c1ncnc2[nH]ccc12` + CCN(CC)CCCCNc1ncc2cc(-c3cc(OC)cc(OC)c3)c(NC(=O)NC(C)(C)C)nc2n1 [PD173074] (first compound 1 µM, partner dose 0.1 µM), the cell count in the experiment with MZ2-MEL was 103%; in the experiment with MeWo, 110%; in the experiment with RPMI7951, 92.7%; in the experiment on RVH-421, 104%; with SkMel28, 82%; in the experiment on SkMel30 it was 99%. In addition, the cell count in the experiment with SkMel5 amounted to 116%; in the experiment on UACC257 it was 97.2%; with UACC62, 96.3%; in the experiment on WM115, 92.9%; in the experiment on WM1716, 110%; in the experiment with WM1745 it was 97.5%. For the same compound, the cell count amounted to 107% with WM3526, 114% in the experiment with WM3619 and 113% with WM451Lu.

Take `COc1cc(Nc2ncc(F)c(Nc3ccc4c(n3)NC(=O)C(C)(C)O4)n2)cc(OC)c1OC` [Tamatinib] + COc1cc(N2CCC(N3CCN(C)CC3)CC2)ccc1Nc1ncc(Cl)c(Nc2ccccc2S(=O)(=O)C(C)C)n1 [NVP-TAE684] (first compound 0.4 µM, partner dose 0.08 µM): the cell count in the experiment on MZ2-MEL is 94.5%; with MeWo, 87.4%; with RPMI7951, 66.2%; with RVH-421, 80.9%; with SkMel28 it was 76%; in the experiment with SkMel30, 85.5%. Moreover, the cell count is 69.4% in the experiment with SkMel5; 75% in the experiment with UACC257; 102% with UACC62; 85% with WM115; 86.1% with WM1716; 57% with WM1745. Moreover, the cell count worked out at 72% in the experiment with WM3526, 71.6% in the experiment on WM3619 and 108% in the experiment on WM451Lu.

Regarding `C[C@@H]1CCN(C(=O)CC#N)C[C@@H]1N(C)c1ncnc2[nH]ccc12` + O=C1NC(=O)/C(=C/c2ccc(-c3ccc(F)cc3O)o2)S1 [AS252424] (first compound 1 µM, partner dose 1 µM), the cell count came out at 98.6% with MZ2-MEL; 78.6% in the experiment with MeWo; 99.9% in the experiment on RPMI7951; 116% in the experiment with RVH-421; 92% in the experiment on SkMel28; 97.1% in the experiment with SkMel30. The cell count amounted to 99.2% in the experiment with SkMel5; 104% with UACC257; 106% in the experiment on UACC62; 100% in the experiment on WM115; 99.4% in the experiment on WM1716; 97.9% in the experiment on WM1745. Moreover, the cell count in the experiment with WM3526 was 83.6%; with WM3619, 112%; in the experiment on WM451Lu it was 115%.

For the compound `O=C(O)c1ccc(-c2c[nH]c3ncc(-c4ccccc4)cc23)cc1C1CCCC1` + COc1ccc2c(c1)CCC1C2CCC2(C)C(NCCCCCCN3C(=O)C=CC3=O)CCC12 [U73122] (first compound 0.16 µM, partner dose 0.4 µM), the cell count came out at 93.7% with MZ2-MEL; 99% in the experiment with MeWo; 88.8% in the experiment with RPMI7951; 93% in the experiment with RVH-421; 85.9% in the experiment with SkMel28; 91.6% with SkMel30. Besides, the cell count with SkMel5 amounted to 85.5%; with UACC257 it was 108%; in the experiment on UACC62, 97.2%; with WM115, 100%; in the experiment on WM1716 it was 92.9%; in the experiment on WM1745, 88.2%. Also, the cell count in the experiment with WM3526 was 98.6%; in the experiment on WM3619, 100%; with WM451Lu it was 93.2%.
